Reference: PubChem BioAssay (NCATS)
Inconclusive means that the source gave no clear call. Such entries were picked first, then a sample of the others. For part of these data: No potency is given beside an inconclusive call; the fits are too rough. The source made the active and inactive calls. Unless noted, calls come from the whole dose curve; as a rule, active = well fitted curve in the direction sought with a large enough effect; inconclusive = small, poorly fitted or top-dose-only effect, or another doubt; inactive = no such curve, though single readings can be large; an effect the other way counts as inactive or inconclusive.

Key:
[1] = Cytometry Cell-Based qHTS for Inhibitors of the mTORC1 Signaling Pathway in MEF cells (AID 2668); note: potency is the fitted concentration of half-maximal effect
Outline: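 Phospho-rpS6 (Ser235/236) immunofluorescence over PI signal, scored as % positive cells using thresholds from 7.5 nM rapamycin and DMSO wells, after 24 h compound exposure of WT-Tsc2-rescued Tsc2-/-, p53-/- MEFs. PI cell count recorded for viability.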

[2] = biological target: Ubiquitin carboxyl-terminal hydrolase 1 (Homo sapiens) (UniProt O94782); experiment: Inhibitors of USP1/UAF1: Pilot qHTS (AID 504865); note: potency is the fitted concentration of half-maximal effect;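 note: rhodamine fluorescence freed from ubiquitin-rhodamine substrate followed over time; nearly all actives have a fitted effect of over 35% in size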; for activity change, negative = inhibition: top concentration of the series differs between compounds; % is set by controls: 0 for no effect and ±100 for the full control effect
Chain of UniProt O94782 (O94782 whole entry, looked up): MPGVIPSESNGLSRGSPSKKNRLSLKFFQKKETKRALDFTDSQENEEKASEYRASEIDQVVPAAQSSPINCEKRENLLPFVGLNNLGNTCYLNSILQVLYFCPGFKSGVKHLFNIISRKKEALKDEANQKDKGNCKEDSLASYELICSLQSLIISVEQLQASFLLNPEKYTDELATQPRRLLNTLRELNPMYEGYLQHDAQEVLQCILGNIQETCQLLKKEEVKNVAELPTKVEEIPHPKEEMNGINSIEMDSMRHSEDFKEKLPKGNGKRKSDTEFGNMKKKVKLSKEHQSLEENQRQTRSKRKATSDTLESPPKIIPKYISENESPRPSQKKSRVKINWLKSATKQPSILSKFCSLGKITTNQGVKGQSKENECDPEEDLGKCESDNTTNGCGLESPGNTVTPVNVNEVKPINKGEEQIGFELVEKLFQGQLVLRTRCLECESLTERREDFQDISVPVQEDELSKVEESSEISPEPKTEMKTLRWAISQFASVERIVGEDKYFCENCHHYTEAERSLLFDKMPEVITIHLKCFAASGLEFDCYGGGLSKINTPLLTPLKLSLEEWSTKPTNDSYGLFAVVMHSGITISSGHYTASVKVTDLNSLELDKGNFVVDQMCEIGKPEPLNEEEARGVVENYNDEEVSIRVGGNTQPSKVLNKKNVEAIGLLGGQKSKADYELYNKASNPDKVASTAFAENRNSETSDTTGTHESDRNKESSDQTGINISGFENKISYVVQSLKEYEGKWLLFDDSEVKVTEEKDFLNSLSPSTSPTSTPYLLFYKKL
Outline: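 Deubiquitinase activity followed as kinetic rhodamine fluorescence release from 150 nM Ub-Rho. 1 nM USP1/UAF1 with compound, after 15 min room-temperature preincubation, in HEPES pH 7.8 buffer containing TCEP, EDTA, BSA and Tween-20.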

[3] = qHTS Assay for Identifying Gametocytocidal Compounds (AID 743244); note: potency is the fitted concentration of half-maximal effect;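 for max response: % is set by controls: 0 for no effect and ±100 for the full control effect; actives lower the fluorescent signal which means gametocytes are killed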; conditions: P. falciparum 3D7 stage III-V gametocytes, alamarBlue, 72 h; max response: stronger effect = lower value
Outline: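 Using 20,000 stage III–V 3D7 gametocytes per well, compounds were incubated 72 h under 37 °C/5% CO2. Viability was then assessed by 24 h alamarBlue reduction, measured fluorometrically at 525/598 nm.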

[4] = qHTS Assay for Lipid Storage Modulators (AID 1519; calls by dose curve; note: % is set by controls: 0 for no effect and ±100 for the full control effect); conditions: Drosophila S3 cells, BODIPY lipid droplet/cell ratio, laser cytometry, cells loaded with oleic acid; activity change, negative = inhibition: at 57.5 µM (top of the series) unless noted
Outline: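 Cells seeded at 5,000 per well were treated with compounds over a concentration series and loaded with oleic acid (400 uM, as added). Lipid droplet fluorescence (488 nm excitation, 500-530 nm channel) was read by laser-scanning cytometry and normalized to 20 uM Triacsin C.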

[5] = qHTS for differential inhibitors of proliferation of Plasmodium falciparum line 7G8 (AID 1815);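 note: parasite growth measured after three days of incubation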; note: potency is the fitted concentration of half-maximal effect;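 for activity change, negative = inhibition: plate controls were vehicle wells for no effect and reference inhibitor wells for full effect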
[6] = qHTS for differential inhibitors of proliferation of Plasmodium falciparum line W2 (AID 1883); conditions: Potency: Plasmodium falciparum W2 proliferation inhibition;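 note: parasites grown with compound for 72 h before lysis and staining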; note: potency is the fitted concentration of half-maximal effect;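 for activity change, negative = inhibition: 0% = vehicle wells and -100% = control inhibitor wells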
[7] = Validation screen for small molecules that induce genotoxicity in human embryonic kidney (HEK293T) cells expressing luciferase-tagged ELG1 (AID 493106); note: potency is the fitted concentration of half-maximal effect
Outline: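 HEK293T cells expressing luciferase-tagged ELG1, 2,000 cells/well, exposed to compound 16 hr at 37 °C, 5% CO2. Luciferase read after ONE-Glo, 30 min at room temperature; increased signal indicates genetic stress.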

[8] = qHTS for differential inhibitors of proliferation of Plasmodium falciparum line Dd2 (AID 1882); conditions: Potency: Plasmodium falciparum Dd2 proliferation inhibition; note: potency is the fitted concentration of half-maximal effect; nearly all actives have a fitted effect of over 65% in size
Outline: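 Dd2-infected erythrocytes (0.3% parasitemia, 2.5% hematocrit final) incubated with compound 72 h at 37 C, 5% CO2; lysed with saponin/Triton buffer containing SYBR Green I, incubated overnight in the dark, then read by fluorescence (485/535 nm). Normalized to 0.29 uM artemisinin and DMSO.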

[9] = qHTS for differential inhibitors of proliferation of Plasmodium falciparum line HB3 (AID 1886); conditions: Potency: Plasmodium falciparum HB3 proliferation inhibition;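 note: potency is the fitted concentration of half-maximal effect; parasites grown with compound for 72 h before SYBR Green readout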
[10] = biological target: D(1A) dopamine receptor (Homo sapiens) (UniProt P21728); experiment: HTS Assay for Allosteric Agonists of the Human D1 Dopamine Receptor: Primary Screen for Antagonists (AID 488983); conditions: D1 receptor cell assay, antagonist mode, qHTS titration; activity change, negative = inhibition: at 41.8 µM (top of the series);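 note: calcium flux response to an EC80 dopamine challenge measured with no-wash dye; potency is the fitted concentration of half-maximal effect; nearly all actives have a fitted effect of over 65% in size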
Chain of UniProt P21728 (P21728 whole entry, looked up): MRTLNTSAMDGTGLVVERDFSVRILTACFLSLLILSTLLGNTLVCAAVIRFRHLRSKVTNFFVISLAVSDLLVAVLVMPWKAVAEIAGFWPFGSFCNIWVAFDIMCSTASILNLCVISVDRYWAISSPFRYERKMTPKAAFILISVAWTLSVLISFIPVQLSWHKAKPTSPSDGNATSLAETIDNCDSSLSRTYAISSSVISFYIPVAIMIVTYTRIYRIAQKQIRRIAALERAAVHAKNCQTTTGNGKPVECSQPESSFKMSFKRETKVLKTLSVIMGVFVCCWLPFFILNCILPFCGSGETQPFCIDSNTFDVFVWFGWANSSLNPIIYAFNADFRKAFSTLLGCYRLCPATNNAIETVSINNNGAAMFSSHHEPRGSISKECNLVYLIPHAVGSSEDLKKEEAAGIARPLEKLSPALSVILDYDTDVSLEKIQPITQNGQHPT
Outline: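 Tetracycline-induced HEK293 T-REx D1 line, force-coupled to calcium flux, read with no-wash calcium dye. Compound added after 10 s baseline, read 180 s for agonism, then EC80 dopamine added and read a further 180 s.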

[11] = biological target: Muscarinic acetylcholine receptor M1 (Rattus norvegicus) (UniProt P08482); experiment: qHTS Assay for Antagonists of Acetylcholine Muscarinic M1 Receptor: Measurement of IP-One Response (AID 944); note: nearly all actives have a fitted effect of over 75% in size; note: potency is the fitted concentration of half-maximal effect
Chain of UniProt P08482 (P08482 whole entry, looked up): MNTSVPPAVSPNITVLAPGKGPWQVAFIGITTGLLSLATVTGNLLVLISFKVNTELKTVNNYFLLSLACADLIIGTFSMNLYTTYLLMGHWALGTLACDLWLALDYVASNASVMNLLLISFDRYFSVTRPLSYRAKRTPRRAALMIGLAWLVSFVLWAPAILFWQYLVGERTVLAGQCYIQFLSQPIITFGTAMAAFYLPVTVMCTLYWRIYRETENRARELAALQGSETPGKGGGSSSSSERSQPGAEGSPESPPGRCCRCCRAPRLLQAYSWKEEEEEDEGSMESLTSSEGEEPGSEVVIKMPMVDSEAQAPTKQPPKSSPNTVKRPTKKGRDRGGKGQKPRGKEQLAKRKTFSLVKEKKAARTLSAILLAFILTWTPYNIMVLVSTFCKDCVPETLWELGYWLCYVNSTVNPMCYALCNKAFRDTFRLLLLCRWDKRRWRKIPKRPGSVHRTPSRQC

[12] = Quantitative high throughput screen for delayed death inhibitors of the malarial parasite plastid, 48 hour incubation (AID 488752); note: potency is the fitted concentration of half-maximal effect; nearly all actives have a fitted effect of over 65% in size
Outline: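 Erythrocytes infected with firefly luciferase-expressing P. falciparum (2% hematocrit, 0.1% parasitemia) cultured with compound for 48 h at 37 C, 5% CO2, in RPMI 1640/0.5% Albumax. Growth inhibition read as loss of luminescence.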

[13] = qHTS Assay for Identification of Small Molecule Agonists for Thrombopoietin (TPO) Signaling Pathway (AID 917); note: potency is the fitted concentration of half-maximal effect
Outline: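 Reporter: GpIIb promoter–luciferase in murine Ba/F3 expressing human TPO receptor. Pre-starved of IL-3 overnight; compounds with 26 pM TPO, 24 hrs, 37 C/5% CO2; luminescence read.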

[14] = biological target: Ferritin light chain (Equus caballus) (UniProt P02791); experiment: qHTS Validation Assay for Identification of Novel General Anesthetics (AID 2323); note: potency is the fitted concentration of half-maximal effect
Chain of UniProt P02791 (P02791 whole entry, looked up): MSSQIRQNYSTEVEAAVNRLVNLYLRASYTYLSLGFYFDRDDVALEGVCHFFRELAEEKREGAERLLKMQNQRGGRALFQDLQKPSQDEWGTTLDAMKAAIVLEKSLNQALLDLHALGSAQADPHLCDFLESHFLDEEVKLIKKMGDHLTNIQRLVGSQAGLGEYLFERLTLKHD
Outline: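 Competitive displacement of the profluorescent anesthetic 1-AMA (50% saturated, PBS) from 10 uM apoferritin, 10 min, room temperature. Activity is normalized 380/535 nm fluorescence; concentration-response fitted with a four-parameter Hill equation.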

[15] = biological target: Glutaminase kidney isoform, mitochondrial (Homo sapiens) (UniProt O94925); experiment: qHTS for Inhibitors of Glutaminase (GLS): LOPAC Validation (AID 624146); note: potency is the fitted concentration of half-maximal effect; nearly all actives have a fitted effect of over 60% in size
Chain of UniProt O94925 (O94925 whole entry, looked up, canonical isoform): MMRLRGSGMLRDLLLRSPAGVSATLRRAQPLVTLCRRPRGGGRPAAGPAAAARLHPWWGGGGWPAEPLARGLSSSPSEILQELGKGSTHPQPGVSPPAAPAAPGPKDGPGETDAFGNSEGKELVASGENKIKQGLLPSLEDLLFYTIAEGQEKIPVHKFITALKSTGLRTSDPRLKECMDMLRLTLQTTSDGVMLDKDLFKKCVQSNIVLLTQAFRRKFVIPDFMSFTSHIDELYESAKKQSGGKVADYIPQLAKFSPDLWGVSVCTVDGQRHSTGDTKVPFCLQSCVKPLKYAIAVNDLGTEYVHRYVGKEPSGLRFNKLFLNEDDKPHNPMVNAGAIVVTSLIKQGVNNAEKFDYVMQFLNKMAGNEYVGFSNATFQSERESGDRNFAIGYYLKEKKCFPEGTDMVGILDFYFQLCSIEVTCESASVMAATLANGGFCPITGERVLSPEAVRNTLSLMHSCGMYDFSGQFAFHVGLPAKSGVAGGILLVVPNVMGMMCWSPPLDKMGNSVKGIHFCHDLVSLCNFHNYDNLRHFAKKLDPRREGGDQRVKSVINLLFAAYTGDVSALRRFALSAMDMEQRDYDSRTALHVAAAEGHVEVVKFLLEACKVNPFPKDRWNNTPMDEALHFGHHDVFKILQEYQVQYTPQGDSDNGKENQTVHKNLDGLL
Outline: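 Compounds were pin-transferred onto hKGA, after which L-glutamine (1 mM solution) and a detection mix of glutamate oxidase, HRP and Amplex Red were added. Initial and 30 min RT fluorescence reads were collected.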
Tags give direction and shape of the fitted curve.

For `Oc1ccc(/C=C/c2ccc(/C=C/c3ccc(O)cc3)c(Br)c2)cc1`, the Potency [1] was inconclusive [falling, single point], the Potency [2] was “inactive” and the Potency [3] was inconclusive [inhibitor, single point].

In the case of `CC#CCOC(=O)c1c(C)nc2sc3c(c2c1N)CCC(O)C3` (stereo not given), the Potency [4] is reported as “inactive”, the Potency [5] is reported as inconclusive [inhibitor, partial curve, poor fit] and the Potency [6] is reported as inconclusive [inhibitor, partial curve].

For `OC[C@H]1O[C@@H](n2cnc3c(NC4CCCC4)ncnc32)[C@H](O)[C@@H]1O`, the Potency [7] was inconclusive [activator, partial curve, poor fit] and the max response [3] was inactive: -3.53%.

For `COc1cccc(OC)c1OCCNCC1CSc2ccccc2O1` (stereo not given), the activity change, negative = inhibition [4] was inconclusive: 1.37%, the Potency [8] was inconclusive [inhibitor, partial curve] and the Potency [9] was active: 12.6 µM. The Potency [10] was active: 1.26 µM and the Potency [2] was inconclusive [inhibitor, full curve, poor fit].

With `N.N.O=C(O)C1(C(=O)O)CCC1.[Pt]` the Potency [11] was “inactive”, the Potency [5] was inconclusive [inhibitor, partial curve] and the Potency [6] was active: 10 µM. The Potency [9] was inconclusive [inhibitor, partial curve] and the Potency [2] was active: 28.2 µM.

With `OC1(c2ccc(Cl)cc2)CCN(Cc2c[nH]c3ccccc23)CC1` the Potency [12] was inconclusive [inhibitor, single point].

For `O=C(O)/C=C/C(O)c1ccc(Cl)cc1` (stereo not given), the Potency [5] was “inactive”, the Potency [6] was “inactive” and the Potency [7] was “inactive”.

In the case of `N#C/C(=C\c1ccc(O)c(O)c1)C(=O)NCCc1ccccc1`, the Potency [13] is reported as inconclusive [inhibitor, partial curve], the Potency [11] is reported as inconclusive [inhibitor, single point] and the Potency [5] is reported as active: 8.91 µM. For the same compound, the Potency [14] was inconclusive [inhibitor, partial curve], the Potency [1] was active: 10.4 µM and the Potency [12] was inconclusive [inhibitor, single point]. For the same compound, the Potency [7] was inconclusive [activator, single point] and the Potency [15] was active: 1.12 µM.
